# In the supplement of paper PMC8728848:
# This is one part of the list.
# How the values were obtained:
# Experiment in all cases: glycan array binding signal (z-score within array); higher = stronger binding
# Details in all cases: glycan notation: IUPAC condensed, linker removed
# [1] = target: Gal(b1-3)GlcNAc(b1-2)Man(a1-3)[Gal(b1-3)GlcNAc(b1-2)Man(a1-6)]Man(b1-4)GlcNAc(b1-4)GlcNAc
# Summary of the method: (§1)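 The Consortium for Functional Glycomics database supplied 3228 glycan arrays, of which those lacking an available protein sequence were dropped. The binding signal, a within-array Z-score, was averaged across arrays of the same protein sequence and across linkers. Negative scores can be read as non-binding.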
# [2] = target: Gal(b1-3)GlcNAc(b1-2)Man(a1-3)[Gal(b1-3)GlcNAc(b1-2)Man(a1-6)]Man(b1-4)GlcNAc(b1-4)[Fuc(a1-6)]GlcNAc
# Summary of the method: as §1
# [3] = target: Gal(b1-3)GlcNAc(b1-2)Man(a1-3)[GlcNAc(b1-4)][Gal(b1-3)GlcNAc(b1-2)Man(a1-6)]Man(b1-4)GlcNAc(b1-4)GlcNAc
# Summary of the method: as §1
# [4] = target: Gal(b1-3)GlcNAc(b1-2)[Gal(b1-3)GlcNAc(b1-6)]Man(a1-6)[Gal(b1-3)GlcNAc(b1-2)Man(a1-3)]Man(b1-4)GlcNAc(b1-4)GlcNAc
# Summary of the method: as §1
# [5] = target: Gal(b1-3)GlcNAc(b1-3)Gal(b1-3)GlcNAc
# Summary of the method: as §1
# [6] = target: Gal(b1-3)GlcNAc(b1-3)Gal(b1-4)Glc
# Summary of the method: as §1
# [7] = target: Gal(b1-3)GlcNAc(b1-3)Gal(b1-4)GlcNAc
# Summary of the method: as §1
# [8] = target: Gal(b1-3)GlcNAc(b1-3)Gal(b1-4)GlcNAc(b1-2)Man(a1-3)[Gal(b1-3)GlcNAc(b1-3)Gal(b1-4)GlcNAc(b1-2)Man(a1-6)]Man(b1-4)GlcNAc(b1-4)GlcNAc
# Summary of the method: as §1
# [9] = target: Gal(b1-3)GlcNAc(b1-3)Gal(b1-4)GlcNAc(b1-2)[Gal(b1-3)GlcNAc(b1-3)Gal(b1-4)GlcNAc(b1-6)]Man(a1-6)[Gal(b1-3)GlcNAc(b1-3)Gal(b1-4)GlcNAc(b1-2)Man(a1-3)]Man(b1-4)GlcNAc(b1-4)[Fuc(a1-6)]GlcNAc
# Summary of the method: as §1
# [10] = target: Gal(b1-3)GlcNAc(b1-3)Gal(b1-4)GlcNAc(b1-3)Gal(b1-4)GlcNAc(b1-2)[Gal(b1-3)GlcNAc(b1-3)Gal(b1-4)GlcNAc(b1-3)Gal(b1-4)GlcNAc(b1-6)]Man(a1-6)[Gal(b1-3)GlcNAc(b1-3)Gal(b1-4)GlcNAc(b1-3)Gal(b1-4)GlcNAc(b1-2)Man(a1-3)]Man(b1-4)GlcNAc(b1-4)[Fuc(a1-6)]GlcNAc
# Summary of the method: as §1
# [11] = target: Gal(b1-3)GlcNAc(b1-3)Gal(b1-4)GlcNAc(b1-6)[Gal(b1-3)GlcNAc(b1-3)]Gal(b1-4)Glc
# Summary of the method: as §1
# [12] = target: Gal(b1-3)GlcNAc(b1-3)Gal(b1-4)[Fuc(a1-3)]GlcNAc
# Summary of the method: as §1
# [13] = target: Gal(b1-3)GlcNAc(b1-3)Gal(b1-4)[Fuc(a1-3)]GlcNAc(b1-6)[Gal(b1-3)GlcNAc(b1-3)]Gal(b1-4)Glc
# Summary of the method: as §1
# [14] = target: Gal(b1-3)GlcNAc(b1-3)GalNAc
# Summary of the method: as §1
# [15] = target: Gal(b1-3)GlcNAc(b1-6)Gal(b1-4)GlcNAc
# Summary of the method: as §1
# [16] = target: Gal(b1-3)GlcNAc(b1-6)GalNAc
# Summary of the method: as §1
# [17] = target: Gal(b1-3)GlcNAc(b1-6)[Gal(b1-3)]GalNAc
# Summary of the method: as §1
# Gal(b1-3)GlcNAc6S = target: Gal(b1-3)GlcNAc6S
# Summary of the method: as §1
# [18] = target: Gal(b1-3)[Fuc(a1-4)]GlcNAc
# Summary of the method: as §1
# [19] = target: Gal(b1-3)[Fuc(a1-4)]GlcNAc(b1-2)Man
# Summary of the method: as §1
# [20] = target: Gal(b1-3)[Fuc(a1-4)]GlcNAc(b1-2)Man(a1-3)[Gal(b1-3)[Fuc(a1-4)]GlcNAc(b1-2)Man(a1-6)]Man(b1-4)GlcNAc(b1-4)[Fuc(a1-6)]GlcNAc
# Summary of the method: as §1
# [21] = target: Gal(b1-3)[Fuc(a1-4)]GlcNAc(b1-3)Gal(b1-3)[Fuc(a1-4)]GlcNAc
# Summary of the method: as §1
# [22] = target: Gal(b1-3)[Fuc(a1-4)]GlcNAc(b1-3)Gal(b1-4)[Fuc(a1-3)]GlcNAc
# Summary of the method: as §1
# [23] = target: Gal(b1-3)[Fuc(a1-4)]GlcNAc(b1-6)GalNAc
# Summary of the method: as §1
# [24] = target: Gal(b1-3)[GlcNAc(b1-6)]GalNAc
# Summary of the method: as §1
# [25] = target: Gal(b1-3)[Neu5Ac(a2-6)]GalNAc
# Summary of the method: as §1
# [26] = target: Gal(b1-3)[Neu5Ac(a2-6)]GlcNAc(b1-4)Gal(b1-4)Glc
# Summary of the method: as §1
# [27] = target: Gal(b1-3)[Neu5Ac(b2-6)]GalNAc
# Summary of the method: as §1
# Gal(b1-4)Gal = target: Gal(b1-4)Gal
# Summary of the method: as §1
# [28] = target: Gal(b1-4)GalNAc(a1-3)[Fuc(a1-2)]Gal(b1-4)GlcNAc
# Summary of the method: as §1
# [29] = target: Gal(b1-4)GalNAc(b1-3)[Fuc(a1-2)]Gal(b1-4)GlcNAc
# Summary of the method: as §1
# Gal(b1-4)Glc = target: Gal(b1-4)Glc
# Summary of the method: as §1
# Gal(b1-4)Glc6S = target: Gal(b1-4)Glc6S
# Summary of the method: as §1
# Gal(b1-4)GlcNAc = target: Gal(b1-4)GlcNAc
# Summary of the method: as §1
# [30] = target: Gal(b1-4)GlcNAc(a1-6)Gal(b1-4)GlcNAc
# Summary of the method: as §1
# Gal(b1-4)GlcNAc(b1-2)Man = target: Gal(b1-4)GlcNAc(b1-2)Man
# Summary of the method: as §1
# [31] = target: Gal(b1-4)GlcNAc(b1-2)Man(a1-3)Man(b1-4)GlcNAc(b1-4)GlcNAc
# Summary of the method: as §1
binder,measurement,setting,value
"Arath Fbox (Arabidopsis thaliana), NP_178341.1 (protein) EFTWGRKRRVKSESSPFDSFPEDCISYIISFTNPRDACVAATVSKTFESTVKSDIIWEKFLPADYESLIPPSRVFSSKKELYFSLCNDPVLFDDDKKSVWLEKASGKRCLMLSAMNLSIIWGDNPQYWQWIPIPESRFEKVAKLRDVCWFEIRGRTNTRVLSPRTRYSAYIVFKGVDKCYGFQNVAIEAAVGVVGQEPSRRLICFSEAIRRGRRNVVKPKQREDGWMEIELGEFFNDGGIMDNDEIEMSALETKQLNRKCGLIIQGIEIRPAKILAAAAASFLEQKLISEEDLNSAVDHHHHHH",glycan array binding signal (z-score),[1],0.363
same,glycan array binding signal (z-score),[2],3.36
same,glycan array binding signal (z-score),[3],-0.473
same,glycan array binding signal (z-score),[4],-0.358
same,glycan array binding signal (z-score),[5],0
same,glycan array binding signal (z-score),[6],-0.779
same,glycan array binding signal (z-score),[7],-0.611
same,glycan array binding signal (z-score),[8],-0.301
same,glycan array binding signal (z-score),[9],1.03
same,glycan array binding signal (z-score),[10],0.825
same,glycan array binding signal (z-score),[11],-0.587
same,glycan array binding signal (z-score),[12],-0.717
same,glycan array binding signal (z-score),[13],-0.689
same,glycan array binding signal (z-score),[14],0.427
same,glycan array binding signal (z-score),[15],-0.411
same,glycan array binding signal (z-score),[16],-0.072
same,glycan array binding signal (z-score),[17],1.13
same,glycan array binding signal (z-score),Gal(b1-3)GlcNAc6S,-0.198
same,glycan array binding signal (z-score),[18],0.133
same,glycan array binding signal (z-score),[19],2.33
same,glycan array binding signal (z-score),[20],0.546
same,glycan array binding signal (z-score),[21],-0.708
same,glycan array binding signal (z-score),[22],0.178
same,glycan array binding signal (z-score),[23],0.8
same,glycan array binding signal (z-score),[24],0.085
same,glycan array binding signal (z-score),[25],-0.448
same,glycan array binding signal (z-score),[26],-0.093
same,glycan array binding signal (z-score),[27],-0.695
same,glycan array binding signal (z-score),Gal(b1-4)Gal,0.216
same,glycan array binding signal (z-score),[28],-0.522
same,glycan array binding signal (z-score),[29],-0.611
same,glycan array binding signal (z-score),Gal(b1-4)Glc,-0.359
same,glycan array binding signal (z-score),Gal(b1-4)Glc6S,0.347
same,glycan array binding signal (z-score),Gal(b1-4)GlcNAc,0.319
same,glycan array binding signal (z-score),[30],-0.587
same,glycan array binding signal (z-score),Gal(b1-4)GlcNAc(b1-2)Man,-0.413
same,glycan array binding signal (z-score),[31],-0.673
